Data from the supplement of paper PMC12067230.
This is a noisy data set.

Assay: amyloid nucleation score relative to library mode (yeast Sup35 reporter selection) (log enrichment difference); higher = more amyloid nucleation; sequences are the first 22 residues of the Bri2 peptide extended by up to 12 random residues
Settings: random library (experiment): 2;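 active = nucleation score significantly above 0 at FDR 0.05; inactive = not significantly above 0 or absent from output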
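Further: [psi-pin-] Saccharomyces cerevisiae expressing SupN fusions, induced by 100 µM Cu2SO4, selected 7 d at 30 °C without adenine and uracil, scored by deep sequencing of output versus input.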

Which amyloid nucleation score does the source give for EASNCFAIRHFENKFAVETLICCIYVNVF here?
Its amyloid nucleation score is 6.85.

For EASNCFAIRHFENKFAVETLICDDDSSRLVSVER, which amyloid nucleation score is on record?
The amyloid nucleation score was -0.191.

Which amyloid nucleation score does the source give for EASNCFAIRHFENKFAVETLICLNRKCIIYWN here?
The amyloid nucleation score was “inactive”.

For EASNCFAIRHFENKFAVETLICIVESDPENMLRR, which amyloid nucleation score is on record?
Its amyloid nucleation score is 4.98.

Which amyloid nucleation score does the source give for EASNCFAIRHFENKFAVETLICMSSLRSF here?
Its amyloid nucleation score is “inactive”.

With EASNCFAIRHFENKFAVETLICGVVMVRYLSSCV as the sequence, how does the amyloid nucleation score read?
The amyloid nucleation score was “inactive”.

With EASNCFAIRHFENKFAVETLICTCFFL as the sequence, how does the amyloid nucleation score read?
Its amyloid nucleation score is 8.34.

With EASNCFAIRHFENKFAVETLICRKPAMLFPEWS as the sequence, how does the amyloid nucleation score read?
Its amyloid nucleation score is “inactive”.

Which amyloid nucleation score does the source give for EASNCFAIRHFENKFAVETLICALWRYEPSMVSA here?
The amyloid nucleation score was “inactive”.

Which amyloid nucleation score does the source give for EASNCFAIRHFENKFAVETLICGIMMRS here?
The amyloid nucleation score was “inactive”.

For EASNCFAIRHFENKFAVETLICKTSRFLFSVYCG, which amyloid nucleation score is on record?
The amyloid nucleation score was “inactive”.

For EASNCFAIRHFENKFAVETLICTMGWT, which amyloid nucleation score is on record?
The amyloid nucleation score was “inactive”.

With EASNCFAIRHFENKFAVETLICATLIGASVERSK as the sequence, how does the amyloid nucleation score read?
Its amyloid nucleation score is 6.91.

Which amyloid nucleation score does the source give for EASNCFAIRHFENKFAVETLICFIQYVHEGSLCG here?
The amyloid nucleation score was 6.29.

For EASNCFAIRHFENKFAVETLICGYSNRKITERGG, which amyloid nucleation score is on record?
The amyloid nucleation score was “inactive”.

With EASNCFAIRHFENKFAVETLICMDK as the sequence, how does the amyloid nucleation score read?
The amyloid nucleation score was “inactive”.

With EASNCFAIRHFENKFAVETLICFLYSRNFSYTFL as the sequence, how does the amyloid nucleation score read?
Its amyloid nucleation score is “inactive”.

For EASNCFAIRHFENKFAVETLICAPHGC, which amyloid nucleation score is on record?
Its amyloid nucleation score is 4.91.

Which amyloid nucleation score does the source give for EASNCFAIRHFENKFAVETLICYNAVVSYCQAYM here?
The amyloid nucleation score was “inactive”.

With EASNCFAIRHFENKFAVETLICFVDSSWLVAMSI as the sequence, how does the amyloid nucleation score read?
Its amyloid nucleation score is “inactive”.

For EASNCFAIRHFENKFAVETLICRSHFRMNNKGCC, which amyloid nucleation score is on record?
The amyloid nucleation score was 2.86.

Which amyloid nucleation score does the source give for EASNCFAIRHFENKFAVETLICLIVWCYNSYVE here?
Its amyloid nucleation score is “inactive”.

With EASNCFAIRHFENKFAVETLICKYVDLYTDLQQK as the sequence, how does the amyloid nucleation score read?
Its amyloid nucleation score is “inactive”.

For EASNCFAIRHFENKFAVETLICFVTKRILCRWS, which amyloid nucleation score is on record?
Its amyloid nucleation score is “inactive”.

Which amyloid nucleation score does the source give for EASNCFAIRHFENKFAVETLICELGSSSSLLGLG here?
The amyloid nucleation score was “inactive”.

For EASNCFAIRHFENKFAVETLICFRTHWQKVLW, which amyloid nucleation score is on record?
The amyloid nucleation score was 1.05.

Which amyloid nucleation score does the source give for EASNCFAIRHFENKFAVETLICPTMCALREVACR here?
Its amyloid nucleation score is “inactive”.

Same assay, conditions: random library (experiment): 3

For EASNCFAIRHFENKFAVETLICCRPWGDCRNASR, which amyloid nucleation score is on record?
The amyloid nucleation score was 3.25.

For EASNCFAIRHFENKFAVETLICKSDVGSARRAAS, which amyloid nucleation score is on record?
The amyloid nucleation score was “inactive”.

Which amyloid nucleation score does the source give for EASNCFAIRHFENKFAVETLICVSVDSAFCFARL here?
The amyloid nucleation score was 6.93.

For EASNCFAIRHFENKFAVETLICARGGTGYCRR, which amyloid nucleation score is on record?
Its amyloid nucleation score is 2.41.

For EASNCFAIRHFENKFAVETLICYVVWWYTQHSNV, which amyloid nucleation score is on record?
The amyloid nucleation score was “inactive”.

Which amyloid nucleation score does the source give for EASNCFAIRHFENKFAVETLICARGLLWVEVRSH here?
Its amyloid nucleation score is “inactive”.

For EASNCFAIRHFENKFAVETLICLTCAMAG, which amyloid nucleation score is on record?
The amyloid nucleation score was 7.78.

With EASNCFAIRHFENKFAVETLICGSRL as the sequence, how does the amyloid nucleation score read?
Its amyloid nucleation score is 2.78.

With EASNCFAIRHFENKFAVETLICPEVGHKKEQDLC as the sequence, how does the amyloid nucleation score read?
Its amyloid nucleation score is “inactive”.

Which amyloid nucleation score does the source give for EASNCFAIRHFENKFAVETLICFVRKCWMVDCTR here?
Its amyloid nucleation score is “inactive”.

For EASNCFAIRHFENKFAVETLICASTCQFRHRWWT, which amyloid nucleation score is on record?
The amyloid nucleation score was “inactive”.

With EASNCFAIRHFENKFAVETLICGSMLSRGWEGTL as the sequence, how does the amyloid nucleation score read?
The amyloid nucleation score was 3.26.

For EASNCFAIRHFENKFAVETLICYGELVHGLKDRA, which amyloid nucleation score is on record?
Its amyloid nucleation score is 5.65.

Which amyloid nucleation score does the source give for EASNCFAIRHFENKFAVETLICRTNRRAHDNRWR here?
The amyloid nucleation score was 4.94.

For EASNCFAIRHFENKFAVETLICMMVNTWVAKFWS, which amyloid nucleation score is on record?
The amyloid nucleation score was “inactive”.

Which amyloid nucleation score does the source give for EASNCFAIRHFENKFAVETLICTLASPEDMGLAD here?
Its amyloid nucleation score is “inactive”.

Which amyloid nucleation score does the source give for EASNCFAIRHFENKFAVETLICQMQRRVGPHLAG here?
Its amyloid nucleation score is “inactive”.

Which amyloid nucleation score does the source give for EASNCFAIRHFENKFAVETLICALKCGSWSGVLD here?
The amyloid nucleation score was 6.3.

With EASNCFAIRHFENKFAVETLICVLHQIGYSMHQA as the sequence, how does the amyloid nucleation score read?
The amyloid nucleation score was 5.34.

With EASNCFAIRHFENKFAVETLICVLLPSEEIVCHG as the sequence, how does the amyloid nucleation score read?
Its amyloid nucleation score is “inactive”.

With EASNCFAIRHFENKFAVETLICYHGLLVPCDA as the sequence, how does the amyloid nucleation score read?
Its amyloid nucleation score is “inactive”.

For EASNCFAIRHFENKFAVETLICLCPSLPNCLMLC, which amyloid nucleation score is on record?
Its amyloid nucleation score is “inactive”.

For EASNCFAIRHFENKFAVETLICMRDSLQHGHVWR, which amyloid nucleation score is on record?
The amyloid nucleation score was “inactive”.

For EASNCFAIRHFENKFAVETLICDPVLPRIGSGQT, which amyloid nucleation score is on record?
The amyloid nucleation score was “inactive”.

With EASNCFAIRHFENKFAVETLICILGSRLRNCYEG as the sequence, how does the amyloid nucleation score read?
The amyloid nucleation score was “inactive”.

For EASNCFAIRHFENKFAVETLICTLSGTFRIWWDG, which amyloid nucleation score is on record?
Its amyloid nucleation score is “inactive”.

Which amyloid nucleation score does the source give for EASNCFAIRHFENKFAVETLICKSIGGLVGQELR here?
Its amyloid nucleation score is 3.5.

For EASNCFAIRHFENKFAVETLICMMELETYLVCCW, which amyloid nucleation score is on record?
Its amyloid nucleation score is “inactive”.

With EASNCFAIRHFENKFAVETLICYNVYMYFCIVNV as the sequence, how does the amyloid nucleation score read?
The amyloid nucleation score was 5.41.

Which amyloid nucleation score does the source give for EASNCFAIRHFENKFAVETLICGCLRLMRWLVHS here?
Its amyloid nucleation score is “inactive”.

Which amyloid nucleation score does the source give for EASNCFAIRHFENKFAVETLICDAVGRDLVEGMS here?
Its amyloid nucleation score is “inactive”.

Which amyloid nucleation score does the source give for EASNCFAIRHFENKFAVETLICHCCYCLSLCARM here?
Its amyloid nucleation score is 3.57.

With EASNCFAIRHFENKFAVETLICLRAEGVSGCARM as the sequence, how does the amyloid nucleation score read?
Its amyloid nucleation score is “inactive”.
